The RNAGym collection of RNA variant scans (doi:10.7554/elife.90254)
The source gives no read counts; variants with many changes may rest on few reads.

B1: LINE1-full (parent)
chain: UACGUAGGUGGUUUUCCCCUGAUAGUGCUAAGGGGGCCUGGAAGUUUGGACUGGGCAGAGCUCAACACAGCGUGGCAAAGUGGCUGUGGCUAGACUGCCUCUCUGGAUUCCUCGUCACUCAGCAGGGCAUCUCUGAGAGAAAUGCC

Variants of: B1
Assay: self-cleavage, relative activity (ratio to wild type); higher = more cleavage; in vitro, sequencing; the parent is a self-cleaving ribozyme

Variant | self-cleavage
U20C A30G U81A C103A | 1.27
U20C A30U A107U | 0
U20C A31G A77U A124G | 0.62
U20C A31G A79G U87A C90A U112C A124U | 1.02
U20C A31G C51A C63U U132A | 0.53
U20C A31G G35A G54A U143A | 0.63
U20C A31G U73G | 1.06
U20C A31U A43G G125U | 1.1
U20C A31U A69G A92U | 0
U20C A31U A77G U108C C110U | 2.87
U20C A42G A50U A57G G86A | 0.09
U20C A42G G72A A138G | 1.66
U20C A42G U46A A124G | 1.84
U20C A43G A65G C118U U132C | 0.15
U20C A43G A78G U104C A121G C123U U132A A136U | 1.53
U20C A43G C51G A78U | 2.17
U20C A43U A142G | 1.84
U20C A43U U47C U73A | 1.77
U20C A50C C103A | 1.74
U20C A50G A59G C68U U85A U100C A124G | 0.19
U20C A57U U108C | 0.18
U20C A59G A64U U130C | 0.15
U20C A59G A77G A136G | 0
U20C A59G C131U | 0.29

Variant | self-cleavage
U20C A64G A92U A121C C123U A140C | 0.4
U20C A64G A140G | 0.15
U20C A64U U132C | 0
U20C A65G A94G C101A A124G U143C | 0
U20C A65G A107U U109C | 0.14
U20C A65G U134C | 0.16
U20C A67G G97A A124U | 0.03
U20C A67U A78C A117U | 0.84
U20C A69G A77U U108C A142G | 0.64
U20C A69G A140G | 0.75
U20C A69G U102A | 0.13
U20C A77G A141G | 2.24
U20C A77G G127A | 2.68
U20C A77G U130C | 2.63
U20C A79G A136G | 0.92
U20C A79G G137U | 0.9
U20C A79G U87C C95U A141G | 0.11
U20C A79G U108C | 1.12
U20C A79G U109C | 2.18
U20C A79G U130C A140G | 0.57
U20C A92G U100C | 0.35
U20C A92U A94C | 0.11
U20C A92U U100A A121U A129G | 0.36
U20C A92U U104A U115C | 0.56

Variant | self-cleavage
U20C A92U U119C A138G A141C | 0.72
U20C A107G A117U U134C | 1.77
U20C A107G U109A | 1.23
U20C A107U A142G | 1.52
U20C A117U A138U | 1.64
U20C A121G A138G | 1.16
U20C A121U A142G | 1.61
U20C A124G A141G | 1.86
U20C A124U U134C | 2.03
U20C C28A U73C U112C A136U | 0.53
U20C C28G A69G | 0.22
U20C C37U U45C U87A U102C A136U | 0.04
U20C C61U A69G U91C U108C | 0
U20C C90U A92G | 0.06
U20C C98U A142G | 0.63
U20C C103A U112C | 1.3
U20C C113A A124G | 1.46
U20C C113U A138G A142G | 1.63
U20C G21A A64G | 0.45
U20C G25A G106C U119C U143C | 1.27
U20C G25A U134C | 0.6
U20C G27A A31G A121U A142G | 1.31
U20C G34C U47A C113A | 1.48
U20C G35A U52A U62A | 0.06

Variant | self-cleavage
U20C G35U U96C U108C | 0
U20C G40A A65G U108C | 0.03
U20C G40A U85C | 0.2
U20C G41U A94G | 0.31
U20C G49A A117G | 0.48
U20C G53A U134C | 1.71
U20C G53U A92G A121G | 0.07
U20C G53U U119C A141G | 1.85
U20C G55A A64G U102A | 0.05
U20C G55A U87C | 0.13
U20C G55U C128U | 0.26
U20C G74A A140G | 1.79
U20C G75U A138G | 0.62
U20C U23C A43G | 1.92
U20C U23C A107G A124G | 0
U20C U23C C28G U104A | 1.1
U20C U23C U96G C120A A129G | 0
U20C U26A A30G A42G A50U A59G | 0.82
U20C U26A A69G G82U | 0.35
U20C U26A A141G | 1.48
U20C U26A U87A A141G | 0
U20C U26C A59G A77U U143C G144U | 0.14
U20C U26C G58A A69U G75A A79U U134A | 0.02
U20C U26C U39A A92U | 0.95

Variant | self-cleavage
U20C U26C U46C U100C | 2.63
U20C U26C U100C C118U | 2.22
U20C U29A G55A C123U | 0.21
U20C U29C A78G | 2.48
U20C U29C G34C | 1.72
U20C U39A A42G | 1.28
U20C U39A A129U | 1.07
U20C U39A U46A U85C A92U A140G | 0.08
U20C U39A U47C A77U U100A | 1.05
U20C U39A U85C | 0.28
U20C U39A U115C A117G | 0.77
U20C U39C A57U G127A U143A | 0.11
U20C U39C A92G G106A A136G | 0.07
U20C U39C A129G | 1.07
U20C U39C U47G G74A G114U A141G | 0.86
U20C U39C U62C A65U U104A U112A | 0.1
U20C U45A A77U U132C | 2.03
U20C U45A A129U | 1.23
U20C U45C A57U C63U U134A A140G | 0.06
U20C U45C A78U A141G C146U | 2.12
U20C U45C A142G | 1.33
U20C U45G A124G C146U | 0.75
U20C U46C A78G | 1.11
U20C U46C U52C | 1.24

Variant | self-cleavage
U20C U47A A57G | 0.5
U20C U47A A65G U132G A140G | 0.14
U20C U47A G58A A67U G80A U102C U112A | 0
U20C U47A U73C U96C A142G | 0.41
U20C U47C U96A A121G | 0.16
U20C U47C U102C A117G | 1.02
U20C U52A A57C U130C | 0
U20C U52A G86A | 0.08
U20C U52C A92G | 0.41
U20C U52C G53A G55A | 0.07
U20C U62A A136U | 0.12
U20C U62C A67G | 0.41
U20C U62C A121G G122A | 0.03
U20C U62C A136G | 0.11
U20C U62C C90G U102A A136G | 0.05
U20C U62C G144U | 0.07
U20C U62C U119C U132C | 0
U20C U62G C63U G80A | 0.03
U20C U73A A138U | 1.74
U20C U73A U100A U134C | 1.33
U20C U73C A140G | 1.11
U20C U81C A142G | 1.11
U20C U81C C90U U115A A138G | 0.03
U20C U81C U87A | 0.08

Variant | self-cleavage
U20C U81C U96G | 0
U20C U81C U102C A140U | 1.1
U20C U81C U143C | 1.18
U20C U85A U134A | 0.09
U20C U85C U96C | 0.19
U20C U87C C128U | 0.45
U20C U91C C99U A129G | 0.11
U20C U100A U132C A142C | 2.07
U20C U100C A138G | 2.09
U20C U109A A140G | 0.93
U20C U109C U112C U134C | 2.63
U20C U132C A142G | 1.6
U20C U134C U143A | 1.31
U20G A22G A79G U130C | 0.97
U20G A42U A65G G75U U112C U134C | 0.05
U20G A42U U47A | 0.6
U20G A43G A136G | 1.15
U20G A50G U87A C95U | 0.03
U20G A59G U108C U132C | 0.38
U20G A64G U119A A129G | 0.57
U20G A77G C113A | 1.53
U20G A77U U104C | 2.51
U20G A79G U112A G137U | 0.79
